The results in this text go back to the BET-seq Pho4 binding data (Le et al. 2018).

This is one part of the list. These are noisy estimates, calculated here from bound and input reads.

The experiment concerns the target T1, Pho4 (S. cerevisiae) (UniProt P07270).
T1 sequence: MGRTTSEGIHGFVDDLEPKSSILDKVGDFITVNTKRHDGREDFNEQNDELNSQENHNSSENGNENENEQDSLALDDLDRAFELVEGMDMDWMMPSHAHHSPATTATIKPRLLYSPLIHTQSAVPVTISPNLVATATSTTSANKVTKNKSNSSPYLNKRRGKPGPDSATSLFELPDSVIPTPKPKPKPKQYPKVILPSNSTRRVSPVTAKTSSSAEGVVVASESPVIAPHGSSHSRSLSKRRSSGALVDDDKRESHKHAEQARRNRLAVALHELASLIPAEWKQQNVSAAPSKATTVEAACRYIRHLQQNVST
Put plainly: relative binding free energy (BET-seq); higher = weaker binding. The following applies: reference: library average.
On to TCATGCACGTGATGTT, for which the “relative binding free energy” value is -0.1 kcal/mol. As to TGTTACACGTGCTAGT, the “relative binding free energy” value is 0.1 kcal/mol.

On to TTGATCACGTGGCTTT, for which the “relative binding free energy” value is 0.05 kcal/mol. Turning to TTTTGCACGTGGTGCC, the “relative binding free energy” value was 0.03 kcal/mol. Consider CTTGGCACGTGTATAG, for which the “relative binding free energy” value was -0.08 kcal/mol. Regarding TATATCACGTGAGTTG, the “relative binding free energy” value was 0.31 kcal/mol.

For TAATGCACGTGATCTG, the “relative binding free energy” value was determined as 0.07 kcal/mol. As to TGATTCACGTGTGTTA, the “relative binding free energy” value was 0.35 kcal/mol. For the sequence TCGTACACGTGTGAGA, the “relative binding free energy” value amounted to 0.4 kcal/mol.

As for TGGGGCACGTGTCCGA, the “relative binding free energy” value is -0.12 kcal/mol. Regarding CAGGTCACGTGTGGAA, the “relative binding free energy” value was determined as 0.16 kcal/mol. For AGAGGCACGTGCTTGT, the “relative binding free energy” value is -0.2 kcal/mol. Regarding TGTGCCACGTGTCGGG, the “relative binding free energy” value is -0.1 kcal/mol.

With GAAGGCACGTGGGGTT, the “relative binding free energy” value is -0.11 kcal/mol. Then GCTGTCACGTGGGCGG, with -0.02 kcal/mol. As for ATATTCACGTGAGGAT, the “relative binding free energy” value is 0.32 kcal/mol. The figure for CGCGGCACGTGTTATG is -0.1 kcal/mol; for GCGGTCACGTGGGGGA it is -0.01 kcal/mol. With ATGTGCACGTGAGCGT, the “relative binding free energy” value is 0.03 kcal/mol. Take AGTTCCACGTGTTAAG: the “relative binding free energy” value was 0.15 kcal/mol. As to TGCAGCACGTGATTGG, the “relative binding free energy” value was -0.01 kcal/mol. Consider ATTGTCACGTGTTTGT, for which the “relative binding free energy” value amounted to 0.12 kcal/mol.

In the case of TGCGTCACGTGTTTTG, the “relative binding free energy” value stood at 0.03 kcal/mol. As to AAGCTCACGTGAGGGG, the “relative binding free energy” value turned out to be 0.28 kcal/mol. As to TCGGGCACGTGAGCGG, the “relative binding free energy” value was -0.01 kcal/mol. As to GTTTACACGTGATGCA, the “relative binding free energy” value amounted to 0.2 kcal/mol. Regarding ATCTACACGTGTGGGT, the “relative binding free energy” value was determined as 0 kcal/mol. With TTTAACACGTGGACTG, the “relative binding free energy” value was -0.1 kcal/mol. As to GAATACACGTGATGGG, the “relative binding free energy” value was 0.23 kcal/mol.

In the case of TTGGGCACGTGCCGTG, the “relative binding free energy” value was -0.22 kcal/mol. Turning to AGTTACACGTGTACGG, the “relative binding free energy” value was found to be 0.1 kcal/mol. As for ATCGTCACGTGCCGGG, the “relative binding free energy” value was 0.18 kcal/mol.

In the case of TGTATCACGTGTATCG, the “relative binding free energy” value came out at 0.15 kcal/mol. With TTACGCACGTGAGTAG, the “relative binding free energy” value was found to be 0.24 kcal/mol. For GTAGGCACGTGGGTTG, the “relative binding free energy” value is -0.12 kcal/mol. Consider AGTAGCACGTGAAGTT, for which the “relative binding free energy” value worked out at 0.33 kcal/mol. For the sequence GACATCACGTGGGGGG, the “relative binding free energy” value is 0.11 kcal/mol. For CTAGTCACGTGATTAG, the “relative binding free energy” value was 0.31 kcal/mol. For the sequence GTTAGCACGTGGGGCA, the “relative binding free energy” value is -0.22 kcal/mol. For the sequence TGGGTCACGTGGTTTA, the “relative binding free energy” value was 0.14 kcal/mol.

For the sequence ATAGTCACGTGGGGCG, the “relative binding free energy” value is -0.1 kcal/mol. The figure for CGCGCCACGTGGTGGA is -0.05 kcal/mol; for TTGAGCACGTGTTTTC it is -0.02 kcal/mol; for GGATGCACGTGACTGG it is 0.01 kcal/mol.

With AATGGCACGTGGTTAA, the “relative binding free energy” value was -0.14 kcal/mol. For the sequence GGTTTCACGTGCGGTC, the “relative binding free energy” value was found to be 0.25 kcal/mol. The figure for AAGGGCACGTGCAGTG is -0.09 kcal/mol; for TTACTCACGTGTTGCT it is 0.3 kcal/mol. Consider TTTCTCACGTGTGTTC, for which the “relative binding free energy” value is 0.2 kcal/mol.

Consider TGGGCCACGTGAATGG, for which the “relative binding free energy” value was 0.27 kcal/mol.

With CTCGGCACGTGGGCAG, the “relative binding free energy” value was -0.18 kcal/mol. AAAGTCACGTGTGTCG: the “relative binding free energy” value was found to be 0.01 kcal/mol. Consider TAATGCACGTGTTTAG, for which the “relative binding free energy” value was -0.24 kcal/mol. GTCGGCACGTGTAATG: the “relative binding free energy” value was 0.19 kcal/mol. For CTGGGCACGTGTATGT, the “relative binding free energy” value is -0.05 kcal/mol. The figure for TGTGACACGTGAATAT is 0.29 kcal/mol; for ATGGTCACGTGAGCAG it is 0.21 kcal/mol; for TGGAACACGTGGGGCT it is -0.05 kcal/mol.

ATTAACACGTGACGTG: the “relative binding free energy” value worked out at 0.23 kcal/mol. Regarding CTATGCACGTGGGTGC, the “relative binding free energy” value was -0.2 kcal/mol. The figure for AGGTACACGTGAGTGC is 0.17 kcal/mol.

Regarding TTACGCACGTGTTGAG, the “relative binding free energy” value was 0 kcal/mol.

For the sequence CATTGCACGTGGGAGT, the “relative binding free energy” value is 0.02 kcal/mol.

Consider TGATTCACGTGATCTG, for which the “relative binding free energy” value worked out at 0.17 kcal/mol. Then TTAGACACGTGGTTTT, with 0 kcal/mol; and CTTTACACGTGTATTG, with -0.05 kcal/mol.

TTTGACACGTGCGTTA: the “relative binding free energy” value was 0.02 kcal/mol.

For AGTTGCACGTGGTTTA, the “relative binding free energy” value is -0.11 kcal/mol. Then AGAGTCACGTGCGGTT, with 0.01 kcal/mol; and TGGGCCACGTGGGCTT, with -0.13 kcal/mol. For the sequence ATGTACACGTGGTTGC, the “relative binding free energy” value was 0.13 kcal/mol. CTTGTCACGTGAGCGT: the “relative binding free energy” value came to 0.18 kcal/mol. Turning to TTTGTCACGTGGCGTT, the “relative binding free energy” value amounted to 0.02 kcal/mol. Consider ATGGCCACGTGATATG, for which the “relative binding free energy” value was determined as 0.03 kcal/mol. The figure for TGAAGCACGTGTGGGA is 0.03 kcal/mol. In the case of AGCGTCACGTGTGTGC, the “relative binding free energy” value is -0.05 kcal/mol. As for GCGTACACGTGGTGCG, the “relative binding free energy” value was 0.04 kcal/mol.

Regarding AGGGACACGTGTGTGG, the “relative binding free energy” value came to 0.04 kcal/mol. Then GGGATCACGTGGACGT, with 0.17 kcal/mol.

Take TTACTCACGTGTGTTT: the “relative binding free energy” value was 0.13 kcal/mol. Turning to GATGTCACGTGTTTCT, the “relative binding free energy” value stood at 0.16 kcal/mol. As to GGCTTCACGTGTTAAA, the “relative binding free energy” value was 0.28 kcal/mol. Take TTGGCCACGTGAGGAT: the “relative binding free energy” value came out at 0.26 kcal/mol. On to TGGGACACGTGTTTGG, for which the “relative binding free energy” value was found to be 0 kcal/mol.

Turning to TTGAACACGTGAAGTA, the “relative binding free energy” value came out at 0.31 kcal/mol. The figure for GGATTCACGTGTGATA is 0.24 kcal/mol; for TTGTGCACGTGTCTTT it is 0.08 kcal/mol. For GAGGGCACGTGAATTA, the “relative binding free energy” value worked out at 0.29 kcal/mol.

On to GTGGGCACGTGGGGAC, for which the “relative binding free energy” value is -0.21 kcal/mol.

On to TGGTGCACGTGGTTGG, for which the “relative binding free energy” value is -0.04 kcal/mol.

As to GATAGCACGTGGGATA, the “relative binding free energy” value amounted to 0.02 kcal/mol. On to TCTTTCACGTGGGTGG, for which the “relative binding free energy” value is 0.19 kcal/mol. On to GCTATCACGTGCTGGG, for which the “relative binding free energy” value was 0.28 kcal/mol. Then AGGGACACGTGGTGTC, with -0.14 kcal/mol; and CAGTGCACGTGGATGT, with 0.09 kcal/mol; and GGTGACACGTGGTAAT, with 0.06 kcal/mol.

Consider TATTTCACGTGAGGAG, for which the “relative binding free energy” value worked out at 0.4 kcal/mol. Turning to TGTTTCACGTGGCTAT, the “relative binding free energy” value was found to be 0.27 kcal/mol. As to TGGCGCACGTGTATGT, the “relative binding free energy” value was -0.03 kcal/mol.

CTGGCCACGTGTGGAG: the “relative binding free energy” value was -0.05 kcal/mol. Consider GTTGGCACGTGGCGAG, for which the “relative binding free energy” value is -0.18 kcal/mol. In the case of TAATTCACGTGAGATG, the “relative binding free energy” value worked out at 0.53 kcal/mol. Consider TAGTGCACGTGCGGAT, for which the “relative binding free energy” value is -0.03 kcal/mol.

As for GGGTGCACGTGGTCAG, the “relative binding free energy” value was -0.17 kcal/mol. Then AGTATCACGTGGCATT, with -0.01 kcal/mol; and GGAGGCACGTGTGCTT, with -0.08 kcal/mol. The figure for CAGGGCACGTGTCTGG is -0.04 kcal/mol; for GGTGACACGTGTCAGG it is 0.04 kcal/mol; for GCTAGCACGTGTTGGT it is -0.09 kcal/mol.

As to CTGGGCACGTGGTAGT, the “relative binding free energy” value is -0.16 kcal/mol. Take TAGTGCACGTGGAGAT: the “relative binding free energy” value is -0.02 kcal/mol.

For CTTCGCACGTGTGTGG, the “relative binding free energy” value is -0.01 kcal/mol. Turning to GTTTTCACGTGAGAGA, the “relative binding free energy” value stood at 0.46 kcal/mol. As for CGTTGCACGTGTGCAG, the “relative binding free energy” value is -0.04 kcal/mol. For the sequence ATATACACGTGGAGTT, the “relative binding free energy” value was -0.17 kcal/mol. Turning to GAGCGCACGTGTTGAG, the “relative binding free energy” value was 0.01 kcal/mol. With GGTGGCACGTGAATTA, the “relative binding free energy” value worked out at 0.2 kcal/mol. The figure for ACTTTCACGTGTGTTA is 0.16 kcal/mol; for TAATCCACGTGGTTTT it is 0.04 kcal/mol; for TGCGTCACGTGTTTGC it is 0.09 kcal/mol. As for AAAATCACGTGGAAGG, the “relative binding free energy” value stood at 0.24 kcal/mol. As for TCGCGCACGTGAGGTT, the “relative binding free energy” value was determined as 0.06 kcal/mol. Take AATAGCACGTGAGGGT: the “relative binding free energy” value came to 0.09 kcal/mol. In the case of GTGGGCACGTGCTAAG, the “relative binding free energy” value was -0.12 kcal/mol. For TCAGGCACGTGTATTG, the “relative binding free energy” value was -0.1 kcal/mol.

On to TTAGTCACGTGCATCT, for which the “relative binding free energy” value was determined as 0.19 kcal/mol.

Take TTGTTCACGTGTTAGC: the “relative binding free energy” value was determined as 0.33 kcal/mol. Regarding CTGTGCACGTGCTTGT, the “relative binding free energy” value was -0.14 kcal/mol. The figure for TGGATCACGTGAATCT is 0.53 kcal/mol; for GTATACACGTGAGTGA it is 0.27 kcal/mol.

Consider TTGAGCACGTGTATGA, for which the “relative binding free energy” value was determined as 0.03 kcal/mol. In the case of TAGCGCACGTGAAAAG, the “relative binding free energy” value was 0.37 kcal/mol. Take CGTTCCACGTGATGTG: the “relative binding free energy” value amounted to 0.14 kcal/mol.

As to GTAGGCACGTGGTATT, the “relative binding free energy” value is -0.05 kcal/mol. With GTTATCACGTGAAGAT, the “relative binding free energy” value amounted to 0.51 kcal/mol. With TCGGACACGTGGTGTA, the “relative binding free energy” value was -0.08 kcal/mol. As for CTAGGCACGTGTGGCG, the “relative binding free energy” value was -0.13 kcal/mol. For the sequence GAGGACACGTGGCTGG, the “relative binding free energy” value stood at 0.05 kcal/mol. For the sequence TCTTTCACGTGTGATA, the “relative binding free energy” value was found to be 0.2 kcal/mol. Consider GGGTCCACGTGATGAT, for which the “relative binding free energy” value is 0.21 kcal/mol.

On to AGGGTCACGTGAGGCA, for which the “relative binding free energy” value is 0.23 kcal/mol. As for TTTTACACGTGTCGTA, the “relative binding free energy” value came to 0.02 kcal/mol. For TTAGTCACGTGTTGAG, the “relative binding free energy” value was 0.1 kcal/mol.

Take GTATACACGTGTGATA: the “relative binding free energy” value turned out to be 0.18 kcal/mol. Take ACGTTCACGTGTTGCT: the “relative binding free energy” value was 0.24 kcal/mol. Consider ATCAGCACGTGGGGGT, for which the “relative binding free energy” value is -0.3 kcal/mol.
